Results: the RNAGym collection of RNA variant scans (doi:10.1073/pnas.2313332121)
This sample is rich in variants without activity.

B1: TPR 5TU (parent)
chain: GGAUCUUCUCGAUCUAACAAAAAAGACAAAUCUGCCACAAAGCUUGAGAGCAUCUUCGGAUGCAGAGGCGGCAGCCUUCGGUGGCGCGAUAGCGCCAACGUUCUCAACUAUGACACGCAAAACGCGUGCUCCGUUGAAUGGAGUUUAUCAUG

Variants of: B1
Assay: polymerase ribozyme fitness, log enrichment relative to wild type (log ratio); higher = more active; in vitro selection for triplet polymerase activity
How it was run: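 A single round of triplicate in vitro selection, including frozen incubation at −7 °C, was applied to PCR-built, transcribed mutant libraries of each subunit of a heterodimeric triplet polymerase ribozyme. Illumina sequencing of input and output libraries retained genotypes with ≥10 input reads and ≥1 read per output. Fitness is the base-2 logarithm of genotype enrichment divided by wild-type enrichment, from inverse-variance-weighted replicate averages.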

Variant | polymerase ribozyme fitness (log ratio)
G25U U45A G48C A49G C63A A66C C76U U78G C129G | ≤ -4.2
A24C G25U A29G C105G | ≤ -4.2
G25U C85U U104G G128A G141A A142G | ≤ -4.2
G25U G42A A49C G80A C85G C95U C103A | ≤ -4.2
G25C A39U A73G C85U C149G | ≤ -4.2
A24G A26G C85G C87U A106G U135G | ≤ -4.2
A24U C38A G46A G68U C95U A138C | ≤ -4.2
G25C A64G G86U G124C G126U G136A | ≤ -4.2
A26C C75U G92C | ≤ -4.2
G25C G86A A122U | ≤ -4.2
G25U U148A | ≤ -4.2
A24U C38U G74C U102A U144G | ≤ -4.2
A26G A29G C57G G94U | ≤ -4.2
A24U G62U C96A G117A | -1.86
A24C G65A G84C A97G G100U C108G G141C | ≤ -4.2
A24U U45A G83A G88C C118G C129G U145G | ≤ -4.2
G25U C76U | -2.44
A24C G84A G133A | ≤ -4.2
A26G C32G G59U G84C G86A A138U | ≤ -4.2
G25U A26G G50C C69U G94C C114A G143U | ≤ -4.2
G25A A26G C85G G100A C114A A138U | ≤ -4.2

Variant | polymerase ribozyme fitness (log ratio)
G25A A29U U33G U53A C95G A113C | ≤ -4.2
A24U U44A G48U G59U C87A C103G | ≤ -4.2
A24U A60G C85U A97C C129U | -0.602
A24G A37C C85G C125G | ≤ -4.2
A26C U31A C76A C87A C118U | ≤ -4.2
G25A U61A | -3.19
G25C A64C C96U | ≤ -4.2
A24C U61A C63G G81A G94A | ≤ -4.2
A26G C38U U55A C75G C79G A89U C103G U146G | ≤ -4.2
A24G C69U C75U U82G U148C | ≤ -4.2
G25U C32U C57U G74C C93A A113C G143U | ≤ -4.2
A24U A28U C43U U45G A52G G84A A91C C118U A138C G140C | ≤ -4.2
A24G A40C U55G A97U | ≤ -4.2
A24G U31G A64C C95A A107G A113C U146G | ≤ -4.2
G25U C96A A142G | -4.05
A24U A40C A98U | 0.235
A26C G42C C96U C105U | ≤ -4.2
G25U A40C G46C G70A G86U U111G C118U G140C | ≤ -4.2
A26C C93A | -3.21
A26C C38U C69A U77G G88U | ≤ -4.2
A24G C99U A115G G141C | ≤ -4.2

Variant | polymerase ribozyme fitness (log ratio)
A24U C43A A60C C96A A119U G126A | ≤ -4.2
G25U U55A C85A G140C | ≤ -4.2
A24G C27G A41G C43U G128U U139A A142G | ≤ -4.2
G25U G50C U77A C87U A107G | ≤ -4.2
A24U A60U G83A | -1.22
A24U A73U A119G A121U C132A | -3.66
G25U G92A A98G A121G G124U A137U A150U | ≤ -4.2
G25C A41C U55A U61A C116U U144A | ≤ -4.2
A24U C96U | 0.0587
A24U U45C U101G A106G | 0.694
A24U G80C C85G A91U C95G U101A | ≤ -4.2
A24U A41C U45A G46C A49C G86A | -3.99
A24U G58C U104A G141U | -1.93
A24G C85U U102G | ≤ -4.2
A24U A66G | -3.16
G25C C72U A91G A119U U127A | ≤ -4.2
G25U G50U G92A | ≤ -4.2
A24U U82G G83C | -1.55
A24U A49G G59U C95U C99A C105U G133A | ≤ -4.2
A24U C43U G58A A60C | ≤ -4.2
A24G G80C G83C A115U U134A | ≤ -4.2

Variant | polymerase ribozyme fitness (log ratio)
G25U C38A G46U U56G U148C | ≤ -4.2
A24C C79U G83U C131A | ≤ -4.2
A24U A41U G86U | -3.62
A24G A30U G42U C72U A91G A120C | ≤ -4.2
A24U G80C G86U C125G A137C | ≤ -4.2
A26C U33A G71C A89C C95G C118U | ≤ -4.2
G25A A60G G80U G83A U102G A113U C125A | ≤ -4.2
A24U A41G C69A C99G | -2.54
A24U U61A C76G G88A C95G | ≤ -4.2
A26G C32A C38G G83C C95U A119U | ≤ -4.2
A24U C87A | ≤ -4.2
G25C C79G U145C | ≤ -4.2
A26C C76U G81U G86A U144C | -3.81
A26G A39G C85U | ≤ -4.2
G25A C54A A66U C76G C125G U145A | ≤ -4.2
A24C C72U C85G C131G G133U | ≤ -4.2
A24U C95U C96G C99G U104G A106G A137G | ≤ -4.2
A24U G62U C99G | ≤ -4.2
A24G A39U | ≤ -4.2
A24G C35U A39G U55A G83U G86A | ≤ -4.2
